From the supplement of paper PMC3334620
Whole data set: some 33,000 sequences, median “E-score (-0.5 to 0.5)” near -0.011, cut for the highest 2% near 0.28. Some of the results follow.

Target: T1, Gcr1 (UniProt P07261)
T1 sequence: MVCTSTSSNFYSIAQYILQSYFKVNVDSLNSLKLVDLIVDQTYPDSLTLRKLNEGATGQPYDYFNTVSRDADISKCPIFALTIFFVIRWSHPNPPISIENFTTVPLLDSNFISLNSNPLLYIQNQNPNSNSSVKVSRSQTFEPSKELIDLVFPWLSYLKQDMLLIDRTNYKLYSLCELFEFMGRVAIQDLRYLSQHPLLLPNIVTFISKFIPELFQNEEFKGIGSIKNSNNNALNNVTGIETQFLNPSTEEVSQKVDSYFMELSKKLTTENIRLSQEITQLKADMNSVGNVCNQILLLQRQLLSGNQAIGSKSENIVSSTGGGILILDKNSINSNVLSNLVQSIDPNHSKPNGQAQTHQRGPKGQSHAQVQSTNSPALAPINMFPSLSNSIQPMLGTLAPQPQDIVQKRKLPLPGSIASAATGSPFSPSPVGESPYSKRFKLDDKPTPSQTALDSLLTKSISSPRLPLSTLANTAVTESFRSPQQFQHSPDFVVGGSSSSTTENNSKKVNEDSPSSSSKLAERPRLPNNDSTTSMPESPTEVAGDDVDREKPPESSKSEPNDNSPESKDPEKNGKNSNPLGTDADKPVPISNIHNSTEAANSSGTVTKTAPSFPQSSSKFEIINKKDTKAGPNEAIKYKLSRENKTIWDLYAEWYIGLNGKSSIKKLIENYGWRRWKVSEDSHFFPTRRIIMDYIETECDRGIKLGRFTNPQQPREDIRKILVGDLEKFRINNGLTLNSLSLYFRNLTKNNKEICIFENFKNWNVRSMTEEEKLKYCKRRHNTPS
Test: PBM E-score (8-mer binding enrichment) (E-score (-0.5 to 0.5)); higher = stronger / more preferred TF binding; most listed sequences are background and not binding sites
Details: protein concentration: 100 nM; construct: GST-full length
Outline: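 Bound GST-tagged yeast transcription factors, applied at about 100-200 nM to double-stranded universal all-10-mer Agilent arrays, were detected with fluorescent anti-GST. Scans were normalised with masliner. A modified Wilcoxon-Mann-Whitney statistic, the E-score, was assigned to each ungapped eight-base word pooled with its reverse complement by the Universal PBM Analysis Suite.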

| Sequence | PBM E-score |
| --- | --- |
| CTACCGGC | 0.132 |
| ATTCGGTG | 0.0443 |
| AGAGTCCA | 0.206 |
| AAGCTACT | 0.137 |
| GACTCTCC | -0.0341 |
| AAATCCGT | 0.0169 |
| GACTGACA | 0.141 |
| CAAAGAAA | 0.0448 |
| TTCCGGAA | 0.27 |
| CTGGATGC | 0.425 |
| GAGTCATC | -0.162 |
| AACTCCTT | 0.0317 |
| CGCTGAAG | -0.0695 |
| ACCTACCG | -0.187 |
| ACGTGCAG | 0.035 |
| CAATTGAA | -0.0703 |
| GTTATGAA | 0.201 |
| CCGTTGCA | -0.224 |
| ATGAAGGA | -0.126 |
| ATCAATTG | 0.0455 |
| GCCACCCA | -0.0571 |
| ACCTCGCG | -0.229 |
| CTCTTTGA | -0.037 |
| ACTTACCC | 0.0825 |
| AGCGTCAG | -0.0918 |

| Sequence | PBM E-score |
| --- | --- |
| ACTTCGTA | 0.0106 |
| CCTGATGA | 0.0569 |
| GACAACGC | -0.0673 |
| AAGAATCG | -0.141 |
| ACTACCTC | -0.0199 |
| GTAAGCTA | -0.0515 |
| ACTTCTGA | 0.00793 |
| CAAACAAC | 0.089 |
| ATAAACCC | -0.0238 |
| GGGGATGA | -0.141 |
| TAAGCCGA | -0.177 |
| AAGTGAGC | -0.074 |
| CCCACACA | 0.147 |
| ACGACCTG | -0.151 |
| ATTGTATG | -0.00951 |
| AATGCCTC | -0.00215 |
| CAGCCGTC | -0.241 |
| CGCTATTC | -0.0212 |
| GCAGCTTA | 0.179 |
| CCCCAAGA | 0.0196 |
| ACGAGTTA | -0.102 |
| AAATTGTA | 0.0504 |
| TAGTAACA | 0.0733 |
| TAATGGTA | 0.09 |
| CCTCCCAC | -0.00343 |

| Sequence | PBM E-score |
| --- | --- |
| GTCTAGAC | -0.0403 |
| GTCTTGTA | 0.0494 |
| ATCTGGCC | -0.17 |
| ATACCGCC | -0.0815 |
| TAATTGCA | -0.0517 |
| AGCACGAA | -0.05 |
| GCCTGCTA | -0.143 |
| CCACCCAC | -0.0236 |
| AGTGAGGC | -0.131 |
| ACCAAATC | 0.0988 |
| AGATTACC | -0.0443 |
| AGGTTCTC | 0.173 |
| CTTCGGCA | 0.0669 |
| GTAAGTAC | 0.0123 |
| CTTATGCA | 0.0737 |
| CTCCATGA | -0.0325 |
| AAGCGTAA | -0.0768 |
| AGACATCC | 0.0262 |
| AGCCATAA | 0.0703 |
| GAGACTTA | -0.182 |
| TACTGCGA | -0.195 |
| CACGGACA | -0.017 |
| AGGCCCCT | 0.135 |
| CATTTTAC | 0.24 |
| ATTCATTC | -0.0719 |

| Sequence | PBM E-score |
| --- | --- |
| TCAAACGA | -0.145 |
| GACATATA | -0.0745 |
| ATTATCCG | 0.00436 |
| AAGTCAAT | -0.0603 |
| ATTCCTAC | 0.0721 |
| CTGTGAGA | -0.18 |
| AAGCGCTC | -0.0298 |
| GTGTGCCA | 0.0266 |
| CCGGAGGC | 0.111 |
| CTCTCACA | -0.187 |
| CGTTACTA | -0.01 |
| AGTCACGA | 0.114 |
| CCGGGTTA | -0.141 |
| AGAACTCG | 0.102 |
| CAGGTTTC | 0.163 |
| GCAGTTCA | -0.157 |
| CGTTCTGA | 0.0165 |
| AAGACCGA | -0.227 |
| AGCGCTAT | -0.0501 |
| CCGGATCG | 0.00245 |
| ACGTAACT | -0.105 |
| ATTGCGGG | -0.0146 |
| AACGTTAT | -0.0792 |
| GGTCGGGA | -0.0604 |
| CTCATTCC | 0.0687 |

| Sequence | PBM E-score |
| --- | --- |
| ACATACCA | -0.0703 |
| CGGCAATC | -0.0601 |
| GAAAGACA | 0.0752 |
| CGCATGGC | -0.117 |
| AGAGCAAC | 0.00171 |
| AGTATTTG | 0.0559 |
| GATGACGC | 0.0537 |
| GACCAATC | -0.00665 |
| ACTGCTCT | -0.184 |
| GTACTGCA | -0.237 |
| GTGTCAGA | -0.1 |
| GTTGAGAA | 0.088 |
| ATTAACGG | 0.132 |
| ATGGCCTA | -0.138 |
| AGGGGGTC | -0.252 |
| TCCCTGCA | -0.183 |
| GACGTGCC | -0.14 |
| CCCCAACC | 0.0379 |
| GGACGTCC | 0.291 |
| AATAGTGC | -0.175 |
| CAGTACAC | -0.126 |
| CTACATCC | -0.0889 |
| CATAAGTC | -0.129 |
| CCCGGGAG | -0.00478 |
| CAGAACAG | -0.185 |

| Sequence | PBM E-score |
| --- | --- |
| GATTTCGA | 0.0554 |
| GAAATGCC | -0.15 |
| AGAAAGAC | -0.056 |
| AGGCCGTA | -0.173 |
| CGCATGCA | -0.0879 |
| AGTAATAA | 0.104 |
| ACTAAGAG | 0.0934 |
| AGCGGTGA | -0.133 |
| TCTAAACA | 0.102 |
| AGCCGTAA | -0.129 |
| CCTGCTAA | -0.227 |
| GCGCACCA | 0.175 |
| GTATGTCA | 0.136 |
| GAGCAGCC | 0.217 |
| ACGCAGCG | 0.244 |
| CAGCCCGA | -0.124 |
| AGGTAGTA | 0.0909 |
| ACGCGGCC | 0.0165 |
| CGGAAGGC | 0.00052 |
| GAAGACCA | -0.133 |
| ATAAGAGC | -0.127 |
| GAGTAGAA | 0.0678 |
| ATTCATCA | -0.0442 |
| ACAGCCAG | -0.102 |
| ACTCTTCC | -0.211 |

| Sequence | PBM E-score |
| --- | --- |
| CGATGGAA | -0.0791 |
| AACACTGG | 0.125 |
| AACCTACA | -0.15 |
| CACCTAGA | 0.205 |
| TACTCGGA | -0.0115 |
| GAGGGCAA | -0.168 |
| TACTGGCA | 0.121 |
| CTTACGAA | 0.0781 |
| ATGCGACG | 0.0165 |
| AGTCATTC | -0.176 |
| AGGAACAC | 0.059 |
| AAAATTGT | -0.102 |
| CTATGCAG | 0.00154 |
| ACAAGATC | 0.0465 |
| AAGAGGAT | 0.0595 |
| CAAATATA | 0.144 |
| CAGGACGC | 0.412 |
| TGTGTCAA | -0.188 |
| CATATCGG | 0.0304 |
| AGTTCCCA | 0.22 |
| AGGGTCCG | 0.0344 |
| ACAGGTGA | -0.139 |
| CTTCTCCA | -0.00853 |
| CGCGATGC | 0.137 |
| CCGCGTTC | -0.213 |

| Sequence | PBM E-score |
| --- | --- |
| GACGATGA | -0.11 |
| AAAATCGG | 0.0872 |
| ACCTGTAT | 0.322 |
| GTCCTGGA | 0.0405 |
| GCCCGCGA | 0.0175 |
| CAGGGGGC | -0.125 |
| AGCGGTAG | 0.027 |
| ACAATCTC | -0.113 |
| AACTCACC | -0.0671 |
| CGTAGAAC | 0.0339 |
| ATAGAAGC | 0.315 |
| AGGATGTA | -0.0354 |
| ACTGGCCG | 0.0365 |
| GACGTTTA | 0.0575 |
| CTGTCTAC | -0.0405 |
| GAAAAATC | -0.0766 |
| GCAACGGA | -0.0561 |
| CAGTACCG | -0.225 |
| TAAGCAAA | -0.0549 |
| GTTTGAGA | 0.13 |
| AAACAAGG | 0.16 |
| AATACCCA | 0.153 |
| CGTACTGC | -0.359 |
| GGTATTAC | 0.121 |
| GGGACCGA | -0.0653 |

| Sequence | PBM E-score |
| --- | --- |
| AGTTCCAA | 0.192 |
| AATTGCAC | -0.142 |
| GTAAGACA | -0.0656 |
| TATTTAAA | 0.243 |
| AAGTGATG | 0.0629 |
| AGTGTTGA | 0.0776 |
| AGGGGCAA | -0.0326 |
| AGTCTAGG | 0.15 |
| ATCCATTC | 0.114 |
| AAAGCGAA | -0.0378 |
| CATTGGGG | -0.0755 |
| CAGGGTTC | 0.0778 |
| CACTCAGC | 0.14 |
| AGAAAAAA | 0.0389 |
| ATCCTTGG | 0.142 |
| CCATTTAA | 0.304 |
| AATTCGAG | 0.0234 |
| GCACCGAA | 0.143 |
| CAGGTCGA | -0.23 |
